Laboratory results: PubChem BioAssay AID540267 (National Center for Advancing Translational Sciences (NCATS), 2011)
Screen size: about 340,000 compounds; about 530 (0.16%) were called active. Inconclusive results, whose numbers are uncertain, are shown with a selection of clear calls. Rule as the data show it: active = activity change below about -80%; inconclusive = between about -30% and that limit; inactive = weaker than that.

assay: Small Molecules that selectively kill Giardia lamblia: qHTS; details: Giardia lamblia trophozoite viability; at 7.66 µM; hits give low values;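 also: parasites exposed to compound for two days anaerobically before the ATP read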
Method in brief: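 ATP-content bioluminescence gauges trophozoite survival. Cells (100/well) receive compound and incubate anaerobically for 48 hrs at 37 deg C; detection reagent follows for 15-30 min at room temperature.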
% is scaled to controls: 0 for no effect and ±100 for the full control effect.

Compound	activity change
Cc1ccc(S(=O)(=O)N2CCCCC2)cc1C(=O)N1C(C)CCCC1C (stereo not given)	inactive: -3.59%
CC1CC(C)CN(CC(O)COCCOc2ccc(Br)cc2)C1 (stereo not given)	inconclusive: -32.3% [inhibitor]
O=C(/C=C/Nc1ccc(Br)cc1F)c1ccco1	inconclusive: -56.7% [inhibitor]
C[C@H](CO)N1C[C@H](C)[C@@H](CN(C)S(=O)(=O)c2ccc(F)cc2)Oc2ccc(NS(=O)(=O)c3cccs3)cc2C1=O	inactive: 10.6%
Cc1onc(-c2ccccc2Cl)c1C(=O)NNC(=O)c1ccc(F)cc1	inconclusive: -48.7% [inhibitor]
CC(C)(C)OC(=O)N1CCCC(C(=O)Nc2ccc(C(=O)N3CCCCC3)cc2)C1 (stereo not given)	inactive: 2.5%
COc1ccc(NC(=O)c2ccc(-n3nc(C)c[n+]3[O-])cc2)cc1	inconclusive: -33.4% [inhibitor]
C/C(CC(=O)Nc1ccc(N(C)C)cc1)=N\NC(=O)c1ccccc1O	inactive: -8.03%
O=C(O)c1ccc[n+](Cc2ccc([N+](=O)[O-])cc2)c1	inconclusive: -33.4% [inhibitor]
CC(C)Oc1ccc(C(CCNCc2ccc(O)cc2)c2ccccc2)cc1 (stereo not given)	inactive: 9.75%
COc1ccccc1OCc1ccc(C(=O)N(C)c2ccccc2)o1	inconclusive: -33.8% [inhibitor]
O=C(CCc1ccccc1)Nc1ccc(S(=O)(=O)NC2=NCCCCC2)cc1	inactive: -3.35%
NCCCn1c(C(=O)c2cc(Cl)c(N)c(Cl)c2)c2ccc(C(F)(F)F)cc2[n+]1[O-]	inconclusive: -68% [inhibitor]
Cc1cc(S(=O)(=O)Nc2ccc(C(=O)NCCCN3CCCC3=O)cc2)ccc1F	inactive: -4.76%
CN(C)CCCN(C(=O)c1ccc([N+](=O)[O-])o1)c1nc2cc3c(cc2s1)OCO3	inconclusive: -34.6% [inhibitor]
CN(C)CCn1cnc2c(c1=N)C(c1ccccc1)c1ccc3ccccc3c1O2 (stereo not given)	inconclusive: -31.6% [inhibitor]
CCOc1cc(/C=N/NC(=O)c2cccc(S(=O)(=O)N3CCOCC3)c2)ccc1OCC(=O)N(C)C	inconclusive: -37.7% [inhibitor]
Cc1nc([N+](=O)[O-])cn1-c1nc2ccccn2c1[N+](=O)[O-]	active: -87.8%
COc1ccccc1-n1c(C)cc(/C=C2/C(=N)N3C(=NC2=O)SN=C3S(C)(=O)=O)c1C	inconclusive: -34.1% [inhibitor]
CN(CC(=O)N(C)CC(=O)Nc1c(Cl)cccc1Cl)Cc1ccc(Br)s1	inconclusive: -30.1% [inhibitor]
Cc1onc(-c2ccccc2)c1C(=O)Nc1ncc([N+](=O)[O-])s1	active: -94.4%
CCOc1cc(CNc2ccc(N3CCCCC3)cc2)cc(Br)c1OCC(=O)NC(C)(C)C	inactive: 8.1%
CN(CC(=O)OCC(=O)NCC(F)(F)F)S(=O)(=O)c1ccc(Cl)cc1	inconclusive: -34.7% [inhibitor]
CN=c1scc(C)n1/N=C/c1ccc(O)cc1O	inconclusive: -63.6% [inhibitor]
Cc1ccc2nc(-c3ccc(NC(=O)COC(=O)c4ccc(Br)o4)cc3)sc2c1	inconclusive: -30.9% [inhibitor]

Compound	activity change
O=C(Nc1ccc(Cl)c([N+](=O)[O-])c1)c1ccc(NCCCN2CCOCC2)c([N+](=O)[O-])c1	inconclusive: -52.6% [inhibitor]
C#CCOCCOCCOCCNc1nc(N2CCN(C(=O)[C@H](CCCCN)n3cc(C(N)[C@H](C)CC)nn3)CC2)nc(N2CCN(C(=O)[C@H](CCC(=O)O)n3cc(C(N)[C@H](C)CC)nn3)CC2)n1 (stereo not given in full)	inconclusive: -37.3% [inhibitor]
CCOc1ccc(C(=O)NCC(c2ccco2)N2CCc3ccccc3C2)cc1 (stereo not given)	inconclusive: -34.9% [inhibitor]
O=C(/C=C/c1ccc([N+](=O)[O-])cc1)Nc1cccnc1	inconclusive: -33.4% [inhibitor]
O=C(O)C1CCN(c2ccc(S(=O)(=O)N3CCCCC3)cc2[N+](=O)[O-])CC1	inconclusive: -43.8% [inhibitor]
Clc1cc(Cl)c2nc(N3CCOCC3)sc2c1	inactive: 4.57%
CCC(C)(C)C1CCC(=NNc2nc3ccccc3[nH]2)CC1 (stereo not given)	inconclusive: -33.9% [inhibitor]
O=C1c2ccccc2C(O)(Cc2ccccc2)N1C1CCCCC1 (stereo not given)	inactive: -19.2%
Cc1ccc(-c2cn3cc(C)ccc3n2)cc1	inconclusive: -69.7% [inhibitor]
O=C(Nc1nnc(C2=COCCO2)o1)c1ccc([N+](=O)[O-])s1	inconclusive: -39% [inhibitor]
COC(=O)C1=C(CN2CCCc3ccccc32)NC(=O)NC1c1ccc(F)cc1 (stereo not given)	inactive: -3.62%
CCOC(=O)C1CCCN(C(=O)c2sc3nc(-c4ccc(F)cc4)cn3c2C)C1 (stereo not given)	inactive: -10.2%
Cc1cc(N2CCN(C)CC2)nc2ccc(NC(=S)N3CCN(c4ccc(F)cc4)CC3)cc12	active: -84.6%
O=C(O)CSc1nnc(NC(=O)c2ccc3c(c2)OCO3)s1	inconclusive: -56.3% [inhibitor]
O=C(N/N=C\c1ccc([N+](=O)[O-])o1)c1cncc(Br)c1	inconclusive: -34.6% [inhibitor]
Nc1ncnc2c1ncn2[C@@H]1O[C@H](CNCc2c(OCc3ccccc3F)ccc3ccccc23)[C@@H](O)[C@H]1O	inconclusive: -33.5% [inhibitor]
CCOc1ccc(Nc2nc3ccccc3n2C)cc1	inactive: 5.19%
O=C(NNC(=O)c1sccc1-n1cccc1)c1ccccc1	inactive: -6.74%
Cc1cccc(-c2nnc(NC(=O)c3ccc(Cl)cc3)o2)c1	inconclusive: -37.6% [inhibitor]
Cc1ccc(OCCNC(=O)/C=C/c2ccco2)cc1C	inconclusive: -32.2% [inhibitor]
COc1cccc([C@@H]2CC=C(C(=O)O)[C@H](c3ccccc3)N2S(=O)(=O)c2ccc(C)cc2)c1	inconclusive: -36.6% [inhibitor]
COc1ccccc1OCc1n[nH]c(=S)n1Cc1ccccc1	inactive: -4.88%
Cc1ccc(OCC(=O)Nc2ccc3c(c2)OC(F)(F)O3)c([N+](=O)[O-])n1	inconclusive: -40.1% [inhibitor]
O=S(=O)(c1ccc(Br)cc1F)N1CCCCC1CCO (stereo not given)	inactive: -24.5%
C/C=C(\C)C(=O)O[C@H](c1cc2ccc(=O)oc2cc1OC)[C@@H](O)C(C)(C)O	inactive: -7.4%

Compound	activity change
O=C(C[C@H]1C[C@H](C(=O)N2CCCCC2)[C@@]2(CCc3ccccc3)c3[nH]c4cc(-c5ccco5)ccc4c3CCN2C1=O)NCCN1CCOCC1	inactive: -5.46%
Cc1ccc(C(=O)NCc2ccco2)cc1	inactive: 11.2%
CCN(C(=O)COC(=O)c1cccnc1Nc1ccccc1F)C1CCS(=O)(=O)C1 (stereo not given)	inconclusive: -31.4% [inhibitor]
CC(C)NCC(O)c1cc(O)cc(O)c1 (stereo not given)	inconclusive: -38.5% [inhibitor]
CC(=O)Nc1ccc(NC(=O)CSc2nnc(NC(=O)c3cccc(F)c3)s2)cc1	inconclusive: -31.1% [inhibitor]
C=CC[C@@H](CC(=O)NCCO)C(=O)NC[C@@H](OC(=O)[C@H](CC=C)CC(=O)OC(C)(C)C)c1ccccc1	inconclusive: -37.4% [inhibitor]
COc1ccccc1CNCc1cc(=O)oc2c(C)c(C)ccc12	inconclusive: -34.7% [inhibitor]
Cc1ccc2nc(N/N=C\c3ccc([N+](=O)[O-])o3)nc(-c3ccccc3)c2c1	active: -98.9%
CC1CN(C(=O)COC(=O)/C=C/c2ccc(C(F)(F)F)cc2)CC(C)O1 (stereo not given)	inconclusive: -34.3% [inhibitor]
CCCOc1c(Cl)cc(/C=N/O)cc1OCC	inconclusive: -38% [inhibitor]
COc1ccccc1CNC(=O)CSc1nc(N)c(C#N)c(-c2cccs2)c1C#N	inconclusive: -30.1% [inhibitor]
CC1=CC(C)(C)N(C(=O)c2ccccc2)c2ccc(C)cc21	inactive: 5.91%
O=C(O)CN1C(=O)/C(=C\c2cc([N+](=O)[O-])ccc2OCc2ccccc2Cl)SC1=S	inconclusive: -42.6% [inhibitor]
O=C(Nc1ccc(N2CCN(C(=O)c3ccc(Cl)cc3)CC2)cc1)c1ccc([N+](=O)[O-])o1	active: -86.8%
Cc1ccc(C)c(NC(=O)CCN2CCCCC2)c1	inconclusive: -30.3% [inhibitor]
CCOC(=O)c1c(NC(=O)CN2C(=O)C(=O)N(C(C)C)C2=O)sc(C)c1CC	inconclusive: -30.5% [inhibitor]
c1ccc2nc3c(cc2c1)CCCCC3	inactive: 2.26%
O=C(Cn1ncc(Cl)c(Cl)c1=O)NC1CCS(=O)(=O)C1 (stereo not given)	inconclusive: -37% [inhibitor]
CCCN(CCC)Cc1c(C(=O)N/N=C/C(C)=C\c2ccco2)nnn1-c1nonc1N	inactive: 4.47%
CN1CCN(C(=S)c2cn(Cc3ccccc3)c3ccccc23)CC1	inactive: -1.62%
Cc1c(NC2=CC(=O)CC(C)(C)C2)ccc([N+](=O)[O-])c1C	inconclusive: -32.2% [inhibitor]
CCN(CC)S(=O)(=O)c1ccc(-c2nnc(SC)o2)cc1	inconclusive: -31.7% [inhibitor]
CCOC(=O)C1=C(C)N=c2s/c(=C/c3ccco3)c(=O)n2C1c1cccc(OC)c1 (stereo not given)	inactive: 0.235%
CC(C)C(=O)Nc1nnc(SCc2cccc(F)c2)s1	inactive: 10.1%
O=C(c1ccccc1F)N1CCN=C1SCc1cccnc1	inconclusive: -30.6% [inhibitor]
